# Assay results published in the supplement of paper PMC8728848.
# Some of the results follow.
# B1: CBM32-4 (Clostridium perfringens), P26831 (protein)
# chain: MGSSHHHHHHSSGLVPRGSHMASVYEPSLVDAYVGDDGAKKAVDGDLKTRVKFLGAPSTGDTIVYDLGQEILVDNLKYVVLDTEVDHVRDGKIQLSLDGETWTDAINIGDGVENGVDDMFSTPLKNGYKHGNQSGGIVPIDSAYVEGDNLNQKARYVRILFTAPYRHRWTVINELMINNGEYIPTVNDPT
# Columns and labels:
# Experiment in all cases: glycan array binding signal (z-score within array); higher = stronger binding
# Details in all cases: glycan notation: IUPAC condensed, linker removed
# Fuc(a1-2)Gal = target: Fuc(a1-2)Gal
# Summary of the method: (§1)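 The Consortium for Functional Glycomics database supplied 3228 glycan arrays, of which those lacking an available protein sequence were dropped. The binding signal, a within-array Z-score, was averaged across arrays of the same protein sequence and across linkers. Negative scores can be read as non-binding.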
# Fuc(a1-2)Gal(b1-3)GalNAc = target: Fuc(a1-2)Gal(b1-3)GalNAc
# Summary of the method: as §1
# [1] = target: Fuc(a1-2)Gal(b1-3)GalNAc(b1-3)Gal
# Summary of the method: as §1
# [2] = target: Fuc(a1-2)Gal(b1-3)GalNAc(b1-3)Gal(a1-4)Gal(b1-4)Glc
# Summary of the method: as §1
# [3] = target: Fuc(a1-2)Gal(b1-3)GalNAc(b1-4)[Neu5Ac(a2-3)]Gal(b1-4)Glc
# Summary of the method: as §1
# Fuc(a1-2)Gal(b1-3)GlcNAc = target: Fuc(a1-2)Gal(b1-3)GlcNAc
# Summary of the method: as §1
# [4] = target: Fuc(a1-2)Gal(b1-3)GlcNAc(b1-3)Gal(b1-4)Glc
# Summary of the method: as §1
# [5] = target: Fuc(a1-2)Gal(b1-3)[Fuc(a1-4)]GlcNAc
# Summary of the method: as §1
# Fuc(a1-2)Gal(b1-4)Glc = target: Fuc(a1-2)Gal(b1-4)Glc
# Summary of the method: as §1
# Fuc(a1-2)Gal(b1-4)Glc6S = target: Fuc(a1-2)Gal(b1-4)Glc6S
# Summary of the method: as §1
# Fuc(a1-2)Gal(b1-4)GlcNAc = target: Fuc(a1-2)Gal(b1-4)GlcNAc
# Summary of the method: as §1
# [6] = target: Fuc(a1-2)Gal(b1-4)GlcNAc(b1-3)Gal(b1-4)GlcNAc
# Summary of the method: as §1
# [7] = target: Fuc(a1-2)Gal(b1-4)GlcNAc(b1-3)Gal(b1-4)GlcNAc(b1-3)Gal(b1-4)GlcNAc
# Summary of the method: as §1
# [8] = target: Fuc(a1-2)Gal(b1-4)GlcNAc6S
# Summary of the method: as §1
# [9] = target: Fuc(a1-2)Gal(b1-4)[Fuc(a1-3)]GlcNAc
# Summary of the method: as §1
# [10] = target: Fuc(a1-2)Gal(b1-4)[Fuc(a1-3)]GlcNAc(b1-3)Gal(b1-4)[Fuc(a1-3)]GlcNAc
# Summary of the method: as §1
# [11] = target: Fuc(a1-2)Gal(b1-4)[Fuc(a1-3)]GlcNAc(b1-3)Gal(b1-4)[Fuc(a1-3)]GlcNAc(b1-3)Gal(b1-4)[Fuc(a1-3)]GlcNAc
# Summary of the method: as §1
# Fuc(a1-2)Gal6S(b1-4)Glc = target: Fuc(a1-2)Gal6S(b1-4)Glc
# Summary of the method: as §1
# [12] = target: Fuc(a1-2)Gal6S(b1-4)Glc6S
# Summary of the method: as §1
# [13] = target: Fuc(a1-2)Gal6S(b1-4)GlcNAc
# Summary of the method: as §1
# Fuc(a1-2)[Gal(a1-3)]Gal = target: Fuc(a1-2)[Gal(a1-3)]Gal
# Summary of the method: as §1
# [14] = target: Fuc(a1-2)[Gal(a1-3)]Gal(b1-3)GlcNAc
# Summary of the method: as §1
# [15] = target: Fuc(a1-2)[Gal(a1-3)]Gal(b1-4)Glc
# Summary of the method: as §1
# [16] = target: Fuc(a1-2)[Gal(a1-3)]Gal(b1-4)GlcNAc
# Summary of the method: as §1
# [17] = target: Fuc(a1-2)[Gal(a1-3)]Gal(b1-4)[Fuc(a1-3)]GlcNAc
# Summary of the method: as §1
# [18] = target: Fuc(a1-2)[Gal(a1-4)]Gal(b1-4)GlcNAc
# Summary of the method: as §1
# [19] = target: Fuc(a1-2)[GalNAc(a1-3)]Gal
# Summary of the method: as §1
# [20] = target: Fuc(a1-2)[GalNAc(a1-3)]Gal(b1-3)GlcNAc
# Summary of the method: as §1
# [21] = target: Fuc(a1-2)[GalNAc(a1-3)]Gal(b1-4)Glc
# Summary of the method: as §1
# [22] = target: Fuc(a1-2)[GalNAc(a1-3)]Gal(b1-4)GlcNAc
# Summary of the method: as §1
# [23] = target: Fuc(a1-2)[GalNAc(a1-3)]Gal(b1-4)[Fuc(a1-3)]GlcNAc
# Summary of the method: as §1
# [24] = target: Fuc(a1-2)[GalNAc(a1-4)]Gal(b1-4)GlcNAc
# Summary of the method: as §1
# [25] = target: Fuc(a1-2)[GalNAc(b1-3)]Gal
# Summary of the method: as §1
# Fuc(a1-3)GlcNAc = target: Fuc(a1-3)GlcNAc
# Summary of the method: as §1
# [26] = target: Fuc(a1-3)[Gal(b1-4)]Glc6S
# Summary of the method: as §1
# [27] = target: Fuc(a1-3)[Gal(b1-4)]GlcNAc
# Summary of the method: as §1
# [28] = target: Fuc(a1-3)[Gal(b1-4)]GlcNAc(b1-2)Man(a1-3)[Fuc(a1-3)[Gal(b1-4)]GlcNAc(b1-2)Man(a1-6)]Man(b1-4)GlcNAc(b1-4)GlcNAc
# Summary of the method: as §1
# [29] = target: Fuc(a1-3)[Gal(b1-4)]GlcNAc(b1-2)Man(a1-6)[Gal(b1-4)GlcNAc(b1-2)Man(a1-3)]Man(b1-4)GlcNAc(b1-4)GlcNAc
# Summary of the method: as §1
# [30] = target: Fuc(a1-3)[Gal(b1-4)]GlcNAc(b1-3)Gal(b1-3)[Fuc(a1-4)]GlcNAc
# Summary of the method: as §1
# [31] = target: Fuc(a1-3)[Gal(b1-4)]GlcNAc(b1-4)Gal(b1-4)[Fuc(a1-3)]GlcNAc
# Summary of the method: as §1
# [32] = target: Fuc(a1-3)[Gal(b1-4)]GlcNAc(b1-4)Gal(b1-4)[Fuc(a1-3)]GlcNAc(b1-4)Gal(b1-4)[Fuc(a1-3)]GlcNAc
# Summary of the method: as §1
# [33] = target: Fuc(a1-3)[Gal(b1-4)]GlcNAc6S
# Summary of the method: as §1
# [34] = target: Fuc(a1-3)[Gal3S(b1-4)]Glc6S
# Summary of the method: as §1
# [35] = target: Fuc(a1-3)[Gal3S(b1-4)]GlcNAc
# Summary of the method: as §1
# [36] = target: Fuc(a1-3)[Gal3S(b1-4)]GlcNAc6S
# Summary of the method: as §1
binder,measurement,setting,value
B1,glycan array binding signal (z-score),Fuc(a1-2)Gal,-0.523
same,glycan array binding signal (z-score),Fuc(a1-2)Gal(b1-3)GalNAc,-0.38
same,glycan array binding signal (z-score),[1],1.71
same,glycan array binding signal (z-score),[2],-0.445
same,glycan array binding signal (z-score),[3],-0.335
same,glycan array binding signal (z-score),Fuc(a1-2)Gal(b1-3)GlcNAc,-0.394
same,glycan array binding signal (z-score),[4],-0.488
same,glycan array binding signal (z-score),[5],-0.475
same,glycan array binding signal (z-score),Fuc(a1-2)Gal(b1-4)Glc,-0.357
same,glycan array binding signal (z-score),Fuc(a1-2)Gal(b1-4)Glc6S,-0.257
same,glycan array binding signal (z-score),Fuc(a1-2)Gal(b1-4)GlcNAc,-0.239
same,glycan array binding signal (z-score),[6],-0.311
same,glycan array binding signal (z-score),[7],-0.019
same,glycan array binding signal (z-score),[8],-0.104
same,glycan array binding signal (z-score),[9],-0.465
same,glycan array binding signal (z-score),[10],-0.368
same,glycan array binding signal (z-score),[11],-0.29
same,glycan array binding signal (z-score),Fuc(a1-2)Gal6S(b1-4)Glc,-0.243
same,glycan array binding signal (z-score),[12],4.3
same,glycan array binding signal (z-score),[13],-0.283
same,glycan array binding signal (z-score),Fuc(a1-2)[Gal(a1-3)]Gal,-0.4
same,glycan array binding signal (z-score),[14],-0.46
same,glycan array binding signal (z-score),[15],-0.377
same,glycan array binding signal (z-score),[16],-0.443
same,glycan array binding signal (z-score),[17],-0.467
same,glycan array binding signal (z-score),[18],-0.361
same,glycan array binding signal (z-score),[19],-0.425
same,glycan array binding signal (z-score),[20],-0.431
same,glycan array binding signal (z-score),[21],-0.227
same,glycan array binding signal (z-score),[22],-0.266
same,glycan array binding signal (z-score),[23],-0.307
same,glycan array binding signal (z-score),[24],-0.411
same,glycan array binding signal (z-score),[25],-0.504
same,glycan array binding signal (z-score),Fuc(a1-3)GlcNAc,-0.292
same,glycan array binding signal (z-score),[26],0.044
same,glycan array binding signal (z-score),[27],-0.408
same,glycan array binding signal (z-score),[28],0.148
same,glycan array binding signal (z-score),[29],-0.493
same,glycan array binding signal (z-score),[30],-0.438
same,glycan array binding signal (z-score),[31],-0.313
same,glycan array binding signal (z-score),[32],-0.324
same,glycan array binding signal (z-score),[33],-0.103
same,glycan array binding signal (z-score),[34],0.526
same,glycan array binding signal (z-score),[35],-0.338
same,glycan array binding signal (z-score),[36],1.3
